This note sets out measurements from PubChem BioAssay AID488969 (Vanderbilt High Throughput Screening Facility, 2010).

The full ranking holds about 110,000 compounds; the median of “z-score” is about -0.1, and the highest 2% start at about 2. The list shows a part of the results.

This assay addresses Metabotropic glutamate receptor 8 (Rattus norvegicus) (UniProt P70579). As to the kind of experiment: rat mGluR8 modulators via GIRK flux, primary screen, cell-based, thallium flux, HTS (AID 488969). The note with it: HEK293 rat mGluR8, GIRK (G protein-gated inwardly rectifying potassium channel) thallium flux, FluoZin2; at 10 µM; stronger effect = higher value; submaximal glutamate (EC20) added with thallium.
Sequence of UniProt P70579 (P70579 whole entry, looked up): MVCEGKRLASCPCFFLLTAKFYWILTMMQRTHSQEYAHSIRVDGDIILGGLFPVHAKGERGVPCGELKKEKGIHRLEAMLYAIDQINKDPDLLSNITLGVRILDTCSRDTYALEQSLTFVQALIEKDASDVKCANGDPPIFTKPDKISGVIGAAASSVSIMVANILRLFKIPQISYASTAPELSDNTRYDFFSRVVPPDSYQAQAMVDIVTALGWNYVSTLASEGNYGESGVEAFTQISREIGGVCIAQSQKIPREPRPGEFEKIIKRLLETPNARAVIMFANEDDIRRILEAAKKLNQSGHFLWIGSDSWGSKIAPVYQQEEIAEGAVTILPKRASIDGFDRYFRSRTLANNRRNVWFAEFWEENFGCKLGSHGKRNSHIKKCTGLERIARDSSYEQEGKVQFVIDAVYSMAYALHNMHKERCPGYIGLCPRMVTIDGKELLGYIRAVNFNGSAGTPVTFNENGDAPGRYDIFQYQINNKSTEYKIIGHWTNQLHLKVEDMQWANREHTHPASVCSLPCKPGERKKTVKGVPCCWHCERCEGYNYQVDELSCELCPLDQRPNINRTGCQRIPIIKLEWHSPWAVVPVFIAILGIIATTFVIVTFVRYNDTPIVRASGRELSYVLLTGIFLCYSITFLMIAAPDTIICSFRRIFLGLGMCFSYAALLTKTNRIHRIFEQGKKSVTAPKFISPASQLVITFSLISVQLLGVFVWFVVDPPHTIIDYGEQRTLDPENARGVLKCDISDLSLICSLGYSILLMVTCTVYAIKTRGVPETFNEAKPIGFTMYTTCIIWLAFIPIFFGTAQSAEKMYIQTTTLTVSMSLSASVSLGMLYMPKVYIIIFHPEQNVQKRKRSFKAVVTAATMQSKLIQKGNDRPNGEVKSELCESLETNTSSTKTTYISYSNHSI
For the molecule `CC1(C)CC(=O)C=C(Nc2ccc(F)cc2F)C1`, the z-score is -0.519.
The figure for `CC(C)Oc1cccc(C(=O)NC(=S)Nc2cccc(C(F)(F)F)c2)c1` is 0.755; for `CCCC(=O)Nc1cc(C)c(NC(=O)c2ccncc2)cn1` it is 0.502.
`Fc1cccc(Nc2nc3ccccc3n3nnnc23)c1` displayed a z-score of 0.0225.
For the molecule `Cn1nc(-c2ccccc2)c(C(O)c2ccccc2C(F)(F)F)c1Cl` (stereo not given), the z-score was -0.268.
For `N#C/C(=C\c1c(N(Cc2ccccc2)Cc2ccccc2)nc2ccccn2c1=O)C(N)=O` the value was -1.96.
For `COc1cc(OC)cc(-c2nc(-c3ccccc3OC)no2)c1` the value was -0.117.
As for `Cc1ccc(S(=O)(=O)NC(=O)Nn2c(C)nnc2C)cc1`, the z-score is 0.0611.
`O=C1OC(Nc2ccc(Br)cn2)c2ccccc21` (stereo not given) gave a z-score of 1.06.
In turn, `COc1ccc(OC)c(NC(=O)C2CCCN(S(=O)(=O)c3cccc4cccnc34)C2)c1` (stereo not given) returned a z-score of -0.558.
Molecule `CCOC(=O)C1=C(C)NC(=O)C(C(N)=O)C12CCCC2` (stereo not given) returned a z-score of -0.24.
Turning to `CCCCOc1ccc(/C=N/NC(=O)c2csc(C)c2C)cc1`, the z-score was 1.05.
The molecule `Cc1cccc(NCc2cc(Cl)ccc2O)n1` returned a z-score of -0.0871.
On to `Cc1ccc(C)c(N(CC(=O)NN=C2CCCCCCC2)S(C)(=O)=O)c1`, for which the z-score is -0.202.
For `COc1ccc(S(=O)(=O)Nc2nnc(C(C)(C)C)s2)cc1` the value was 0.0489; for `Cc1ccc(CNC(=O)CN2CCC(C(N)=O)CC2)cc1`, 0.66; for `Cc1cccc(N(CC(=O)O)CC(=O)O)c1`, -0.158.
The molecule `O=C(NCc1ccccc1)c1ccc2c(=O)n(CC3CCCO3)c(=S)[nH]c2c1` (stereo not given) came in with a z-score of 0.0305.
The molecule `CCCNC(=O)c1cccc(COCC(F)(F)F)c1` returned a z-score of 0.43.
Turning to `O=C(NC1CCCCC1NC(=O)c1cccs1)c1cccs1` (stereo not given), the z-score was -0.398.
For the molecule `Cc1cc(C)cc(C(=O)NC(=S)Nc2ccc(-c3cc4ccccc4oc3=O)cc2)c1`, the z-score came to 0.106.
In turn, `CCCNc1nc(NCC)nc(OC)n1` gave a z-score of 0.697.
For `CCCOc1ccc(N2C(=O)CC(N(CCc3ccc(S(N)(=O)=O)cc3)C(C)=O)C2=O)cc1` (stereo not given) the value was -0.143; for `COc1ccc(CNc2nc3nc(C)cc(C)n3n2)cc1`, -0.0238.
In turn, `COc1cccc(/C=N/NC(=O)c2cc3c(OC)c(OC)ccc3[nH]2)c1OC` had a z-score of -0.499.
With `Cc1ccccc1C(=O)NN1C(=O)CSC1=S`, the z-score is -0.222.
On to `Cc1nc2oc(C(=O)c3ccc(Br)cc3)c(N)c2c2c1COC(C)(C)C2`, for which the z-score came out at 0.0116.
`COc1ccc(-c2noc(CCC(=O)NC3CCCCC3)n2)cc1OC` gave a z-score of 0.0256.
`CCCCC(=O)N=c1sc2cc(S(C)(=O)=O)ccc2n1C` registered a z-score of -0.518.
Regarding `CCCN1C(=O)c2cc(C(=O)NCc3ccc(OC)cc3)ccc2C1O` (stereo not given), the z-score is -0.335.
The figure for `Cc1ccc(C)c(C(=O)NCCN(C)C)c1` is 0.237; for `CC(C(=O)Nc1ccccc1C(=O)N1CCOCC1)N(c1ccccc1)S(C)(=O)=O` (stereo not given) it is -0.255; for `CSc1nc(N2CCCC2)c2c(c1C#N)CC(C)(C)OC2` it is -0.933.
Molecule `CC(C)(C)NC(=O)CSc1nc2ccc(NC(=O)CSc3nnc(N)s3)cc2s1` had a z-score of -0.901.
Turning to `O=C1C2C3C=CC(C3)C2C(=O)N1c1ccc2ccccc2n1` (stereo not given), the z-score is -0.206.
The molecule `COc1cc(/C=C/C(=O)Nc2ccncc2)cc(OC)c1OC` had a z-score of -0.0404.
On to `COc1ccc(C2NC(=O)c3sc4nc(C)c(C(C)=O)c(-c5ccc(Cl)cc5)c4c3N2)cc1` (stereo not given), for which the z-score is -0.59.
The molecule `CCSc1nnc(Cc2cc(=O)[nH]c(=O)[nH]2)n1-c1cc(C)ccc1C` returned a z-score of -0.0405.
The figure for `O=C(CSc1nc(-c2ccccc2)cc(C(F)(F)F)n1)N1CCOCC1` is 1.21.
As for `CC(C)C(=O)N1CCN(c2nc(-c3ccccc3)c3c(c2C#N)CCCC3)CC1`, the z-score was -1.7.
The figure for `CCOC(=O)C(C(C)=O)C(c1ccc(OC)cc1)C(C(C)=O)C(=O)OCC` (stereo not given) is 1.81; for `Cc1ccc(CN2CCN(/N=C\C(Br)=C\c3ccccc3)CC2)cc1` it is 0.0103.
`CC(C)(C)c1nn(-c2ccccc2)c2nc(Cl)c(C=O)cc12`: the z-score stood at 0.527.
For `O=C1c2ccccc2C(=O)N1CCSc1n[nH]c(=S)s1` the value was 0.477; for `O=C(CSc1nnc2c3ccccc3c3ccccc3c2n1)Nc1ccccc1`, -0.0629.
Regarding `O=c1cc(Nc2ccc3c(c2)OCCO3)[nH]c(=O)n1Cc1ccc(F)cc1`, the z-score came to 0.183.
The molecule `CN(C(=O)CSc1nnc(-c2ccncc2)n1C)C1CCS(=O)(=O)C1` (stereo not given) registered a z-score of -0.767.
On to `CCOC(=O)N1CCC(=NNC(=O)c2ccc(O)cc2)CC1`, for which the z-score was -0.136.
As for `N/C(=N\OC(=O)CCCCCN1C(=O)c2ccccc2C1=O)c1ccccc1`, the z-score was -0.204.
Turning to `O=C(O)[C@@H]1CCCC[C@@H]1C(=O)N1CCc2ccccc2C1CN1C(=O)c2ccccc2C1=O` (stereo not given in full), the z-score was -1.07.
`O=C(CCN1C(=O)C2CC=C(Cl)CC2C1=O)NC1CCCCC1` (stereo not given) yielded a z-score of 0.761.
The figure for `COc1ccc(NC(=O)CCc2c(C)nc3nc(C)nn3c2C)cc1` is -0.217.
Consider `O=C(Nc1cccc(C(F)(F)F)c1)C1CCCCC1`, for which the z-score came to 0.0112.
In turn, `COC(=O)C(C(=O)Nc1ccc(OC)cc1)C1CCCCCC1` (stereo not given) had a z-score of 0.107.
For `O=C(COC(=O)CNC(=O)c1cccc([N+](=O)[O-])c1)Nc1cccc(S(=O)(=O)N2CCCC2)c1` the value was -0.387; for `Cc1c(Cl)cnc(NC(=O)COC(=O)CCC(=O)c2cccs2)c1Cl`, -0.28; for `COCCN1C=C(C(=O)OC)C(c2ccccc2C(F)(F)F)C(C(=O)OC)=C1`, -0.31.
For the molecule `C=CCNc1nc(N2CCCCC2)c(C#N)c2c1CN(Cc1ccccc1)CC2`, the z-score came to 0.721.
Regarding `Cc1ccc(NC(=O)N2CCC(c3nc4c(nnn4Cc4cccc(Cl)c4)c(=O)[nH]3)CC2)cc1`, the z-score is 0.913.
`COc1cccc(N(C(=O)CNC(=O)c2ccco2)C(C(=O)NC2CCCCC2)c2ccncc2)c1` (stereo not given) registered a z-score of -0.325.
For `COc1cc(/C=N/n2cnnc2)ccc1OCCOc1ccccc1` the value was -0.279; for `O=C(Nc1ccc2c(c1)OCCO2)c1ccco1`, 0.098; for `CCOC(=O)COc1ccc(-c2nnc(-c3ccccc3)o2)cc1`, -0.176.
The molecule `O=C1CC(c2cccc([N+](=O)[O-])c2)c2c(ccc3ccccc23)N1` (stereo not given) yielded a z-score of -0.0524.
`O=S(=O)(c1ccc(S(=O)(=O)N(Cc2cccs2)CC2CCCO2)cc1)N1CCCCC1` (stereo not given) yielded a z-score of 1.7.
For the molecule `CCSc1ncc(Cl)c(C(=O)Nc2ccccc2)n1`, the z-score was -0.43.
Take `CCOC(=O)Cn1c(=O)oc2cc(S(=O)(=O)Nc3cccc(C)c3)ccc21`: the z-score was 0.058.
Regarding `CC/C(=N\NC(=O)c1ccccc1Cl)c1ccc(Br)s1`, the z-score is 0.216.
The figure for `Cc1ccc(S(=O)(=O)N2C3C=CC(C3)C2C(=O)O)cc1` (stereo not given) is 0.75.
Molecule `C=CCN(C(C)=O)C1CC(=O)N(c2ccc(OCCC)cc2)C1=O` (stereo not given) yielded a z-score of -0.00882.
